Measurements taken from the supplement of paper PMC10126150.
Values marked as one replicate rest on one cluster of the flow cell; about a third of the high ones do not repeat.

Tested on: ATP
Assay: switch fluorescence ratio, 500 uM ATP over buffer (Cy3 cluster intensity, sum of 5 cycles each) (fold (ratio)); higher = stronger signal-on switching upon ATP binding; sequences stand for … in TCGTCGGCAGCGTCAGATGTGTATAAGAGACAGTTTTTTTTTTTTTTTTTTTTTTTTT…TC
Details: aptamer strand: ATP DNA aptamer (quencher-CACCTGGGGGAGTATTGCGGAGGAAGG + anchor), 100 nM annealed; ATP concentration: 500 uM; one replicate
Summary of the method: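 Exposure to 500 uM ATP lasted 15 min at 22 °C before imaging, and a selection-buffer image was taken beforehand, for Cy3-labelled switching-strand clusters on a modified Illumina MiSeq flow-cell annealed to 100 nM quencher-labelled ATP aptamer. Five buffer/ATP cycles were run with NaOH stripping and re-annealing between them. The fluorescence ratio per cluster is summed target-cycle over summed buffer-cycle Cy3 intensity, averaged per switch-domain sequence. Clusters outside 100-1000 RFU were excluded.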

Sequence | switch fluorescence ratio
ACCTGGGCTT | 1.02
AGTATCCAC | 1.03
GTGACAGCGA | 1.13
TTGCTCATTT | 1.12
CTCGTAATGA | 1.52
AAAGGAGCTC | 1.04
GTATTTGCCC | 1.01
CTTACCCTGC | 1.53
TGTAGTCGGC | 1.14
ATATAACACT | 1.1
AGGGGGTCCC | 0.885
CACACAATGT | 1.03
AGAACGGTAA | 1.05
GCAATAACCG | 1.26
TCCGACTCTG | 0.953
GCTGGCGATG | 0.979
CGGAAGAGAG | 0.971
CGTTACGGCG | 1.03
ATCTGTTTAG | 0.993
GACTTCACTT | 1.18
GGGTTGATTC | 0.958
GCAGGGAGGT | 0.999
TACGATTTAC | 1.15
ACTTCAG | 0.975
GGCTTTTTG | 0.992
TATGGGCATG | 0.961

Sequence | switch fluorescence ratio
ATCTGAGGGC | 0.961
AAAGCATTTA | 0.999
CTATCAAGGG | 0.954
GAGGTGTTTC | 1
GACTTACGAC | 1.47
GGCGGGGCC | 1
ATTGGGATAT | 1.04
GTTGACATGG | 1.04
ATCTGGGTGC | 1.14
CGCTCGGGA | 1.04
CGTGCAATG | 1.04
TGCCGACATA | 1.03
ATGTCATGTT | 0.937
TATCACGTAT | 1.17
CTATGCTGGG | 0.945
TTGAATAACG | 0.942
GGTCGCGCCC | 1
GTACGGTTGG | 0.993
CGTTCGGA | 1.02
CATTAAGAAG | 1
CTGAGTGGGT | 0.999
AGCTGCGCTG | 0.961
CTTCGTGCGG | 1.01
GCTCCTTTTT | 0.986
AGATTCAATG | 0.982
AAGGGCTTC | 0.966

Sequence | switch fluorescence ratio
CTGAGGACAC | 1.1
AAAAGCCATT | 1.03
GCCGGTACCG | 0.999
ACCGAGCTTG | 1.03
CCGGTGCAGA | 2.13
GTGTTAATCA | 1.01
CACGGAATCA | 1.11
CTACTGTTAC | 1.34
GAGCCGGAGG | 1.03
ACTTTGACCC | 1.13
TGTTACCCCG | 0.98
TAGGAGTC | 1.03
TACGCTGTTT | 1.07
TAGCCATTAT | 1.02
GATTAGAACT | 1.02
TTCATTTTTA | 0.987
CAAGAGGTGG | 1.02
GACTGCCTGG | 1.03
TGGGGCAAT | 1.26
AGGGTTCAAG | 0.968
TTAGTCTGTA | 0.984
CGTTAACGTT | 0.999
CCACGAGTA | 1.03
GAGACGATCA | 1.04
AATTTCGCCG | 1.03
AATAAATCTC | 0.969

Sequence | switch fluorescence ratio
TTGGTGGAAA | 1.03
GACTTATGAA | 1.01
GGAGCCCCC | 1.01
TTGATTGACC | 1.05
GTAGTGCGGT | 0.977
ACCGGCTTCG | 0.976
CAATCTTTCG | 0.969
ATGGACCAAG | 1.02
GAACGGAAAG | 1.08
GACTGACCTG | 0.992
CGACGGCGAT | 1.14
TCAAACTAAC | 1.05
TGGGGCAGTT | 1.06
GAAATCCGTC | 1.13
GTGGGTATAT | 1.02
TCATTGCGCC | 1.05
TAACCCATTA | 1.02
TTTGGCAGTT | 1.04
GAGTGACTCT | 0.993
TTGGGGAGCG | 1.15
GCACGGAACC | 1.28
GAGCTGCTCA | 0.975
GCACGGAGGT | 1.09
AGATATTCTA | 1.01
CATGGTGAC | 1.02
AACAACGTCC | 1.07

Sequence | switch fluorescence ratio
GAGGCGAAAT | 0.988
GATTGGGCGC | 0.978
ACTTGAGAGC | 1.06
GGTTACTGG | 1.06
CCACCGTTTG | 1.28
CGAACAGCAC | 1.6
TCGTCACGT | 0.996
AGTTGACTAG | 0.928
TAAGCAGGG | 1.03
TTAATGCG | 0.984
AAAGCAGACG | 0.918
TTCCTCAATT | 1.19
CTTGCCTGGC | 0.967
ACATAACTAG | 1.06
GAGGGGTCAT | 1.02
GTATCTGACC | 1.03
CTAGTGCTTC | 0.984
TCGTTAGTGG | 0.955
ACCTGGTTTG | 0.999
ACGGTGGCTC | 0.934
GGACTTCGG | 1.01
AAAATCGCAA | 5.1
GCGGGTCGGT | 1.01
CGGTCGGAGC | 1.02
ATGTCTTCGA | 0.982
AAAGTCGGTT | 1.03

Sequence | switch fluorescence ratio
GTTTCCTGCG | 1.38
CGGGCGCGCA | 0.977
CTCGCCGGAT | 0.975
TTCAACCCAG | 1.06
CATGAAACAG | 0.974
TTTAAGTTTA | 0.998
CCGAATGGTC | 1.23
CATGAGTGT | 0.972
ATGGAAATTT | 1.06
AATGAAATTC | 1.09
GGTTTGCACA | 1.02
GCAAGGAGCT | 1.05
CTTAGCGTTA | 1.05
GTTGGGAAAT | 1.01
CAAAATTTTT | 0.972
AGCATCGCCG | 0.963
ACGGAAGGGG | 1.08
TTGCGGTAAC | 1.01
ATCAGGTTCA | 1.01
GACACACCAT | 1.32
ATGAGTGCCC | 1.03
GCGGGCTCAG | 1.02
AGCGCGTTAT | 0.996
TGCCCGATGA | 0.964
ACGTACCTGG | 1.74
TATACGTTAG | 0.991

Sequence | switch fluorescence ratio
CAGGAAGTGT | 1
GTGGTTACG | 0.995
GAGCTGGGAT | 1.01
GTTACCATTC | 0.962
CGCAGTTCAT | 0.958
AGGGTTTC | 0.959
CTGTTCTGCA | 1.01
TAGTAGATCC | 1.04
CTCAAGGGAC | 2.16
ATATGCGTGG | 0.989
ACATAAATCG | 0.993
TGGTGTGTT | 1
TTAGAGCACG | 1.02
GGCCTTTGTA | 0.993
GTATTAGTAT | 0.953
ACATCAGTCG | 1.1
ACACATGTCT | 1.02
AGGGGGCTTG | 1
AGTGTTCGGA | 1.03
ATAAACATAT | 1.03
CGAGGTCAGC | 1
CGAACAATT | 1
CACCAAAGTT | 1.01
ACATAGAGGG | 1.04
AAGCTATAGA | 1.07
CGAATTGAGA | 1.01

Sequence | switch fluorescence ratio
TTTCCGTTAA | 1.11
AAACGTTTTT | 0.978
ACCGTGATCG | 1.06
GGGTTAGTTA | 0.972
GAAGGTGTGA | 1.08
GCTTGGGAAG | 0.975
TCGCAGGAAC | 1.9
ACCCCCTATT | 2.87
CACGCCGACG | 1.18
ACGTATATAA | 1.14
AGATAGAGAA | 0.992
TTACAAGT | 0.975
GTCAACTGCT | 1
ATGTTAGTTC | 1.04
CATTTGCCAT | 0.975
ATTGCGTACG | 1.03
GATTTTTGAA | 0.973
GATCATCTCA | 0.968
CTTGGCAGT | 1.09
